From PubChem BioAssay AID1963576 (National Center for Advancing Translational Sciences (NCATS), 2024)
The whole screen tested about 46,000 compounds, of which about 60 (0.1%) were called active. Not shown: some 3% with an inconclusive outcome. The call rests on the fitted dose curve; in most records, active means well fitted inhibition curve with a large enough effect; inconclusive means small, poorly fitted or top-dose-only effect; inactive means no such curve, though single readings can be large or run the other way. Some of the results follow.

Test: Primary qHTS assay for Inhibitors of ovarian cancer metastasis using an organotypic tumor microenvironment (TME) model. Further: nearly all actives have a fitted effect of over 65% in size.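 On activity change, negative = inhibition: plate controls were DMSO wells for no effect and tomatine positive control wells for full effect.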
Conditions: SKOV3ip1-GFP adhesion/invasion on 3D omental model, fluorescence; series mostly up to 45.8 µM; activity change, negative = inhibition: at the top concentration
Procedure, shortened: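 A 3D layer of primary human omental fibroblasts, mesothelial cells, fibronectin and collagen I, grown 48 hr, received SKOV3ip1-GFP cells in serum-free medium plus compounds at 0.36-46 umol/L. After 2 hr RT and 16 hr 37 C, fixed adherent GFP cells were counted; normalized to DMSO and tomatine.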

Activity change, negative = inhibition, inactive:
CCC(C)NC(=O)Cn1ccc2cc(S(=O)(=O)N3CCCCC3)ccc21 (centres undefined) -3.41%, CCC1CN(C(=O)NCc2ccc(C)cc2)c2ccccc2O1 (centres undefined) -0.921%, CCCCNC(=O)C(Cc1ccccc1)NS(=O)(=O)c1ccc2c(c1)c(=O)n(C)c(=O)n2C (centres undefined) -0.132%, CCn1c(=N)c(C(=O)NCc2ccccc2)cc2c(=O)n3cc(C)ccc3nc21 -24%, Cc1nc2ccccc2c(=O)n1-c1ccc(NC(=O)c2cccc([N+](=O)[O-])c2)cc1 -2.94%, COc1ccc(Cn2ccc3nc(C)c(C(=O)Nc4cc(C)cc(C)c4)cc3c2=O)cc1 2.06%, Cc1ccc(C)c(NC(=O)c2cc(S(=O)(=O)N3CCCc4ccccc43)ccc2F)c1 7.93%, CCOC(=O)c1ccc(NS(=O)(=O)c2ccc(-c3cc(C)no3)cc2)cc1 13.4%, Cc1cc2c(C(C)C)c(O)c(O)c(C=O)c2c(O)c1-c1c(C)cc2c(C(C)C)c(O)c(O)c(C=O)c2c1O -13.4%, CCCC(O)c1nc2ccccc2n1Cc1ccccc1OC (centres undefined) 2.89%, COc1cc(NC(=O)CN2c3ccccc3S(=O)(=O)c3ccccc32)cc(OC)c1 13.2%, CCC1CN(C(=O)N2CCC(C(=O)NCCc3ccccc3Cl)CC2)c2cc(C)ccc2O1 (centres undefined) -10.1%, Cc1ccc(C(=O)CSc2nc(-c3ccccc3)nc3c2CCCC3)c(C)c1 -11.7%, Cc1cccc(C(C)C)c1NC(=O)C1CCCN1S(=O)(=O)c1cccc2nsnc12 (centres undefined) -0.197%, CCOCCCn1c(SCC(=O)OCC)nc2c(sc3ccccc32)c1=O -17.8%, COCCNC(=O)CSc1nc(-c2cc(OC)c(OC)c(OC)c2)[nH]c1-c1ccc(Cl)cc1 -0.233%, O=S(=O)(c1ccccc1)c1nnn2c1nc(NC1CCCCC1)c1sccc12 -5.73%, CNC(=O)C1CCC(Cn2c(=O)c3sccc3n(CC(=O)Nc3ccc(C)c(C)c3)c2=O)CC1 (centres undefined) -5.37%, COc1ccc(CCNC(=O)C2CCC(CNS(=O)(=O)c3ccc(C)cc3)CC2)cc1OC (centres undefined) 8.47%, CCCCn1cc(S(=O)(=O)c2ccc(OC)cc2)c(=O)c2cc(CC)ccc21 0.244%, O=C(O)CCCCn1c(SCC(=O)Nc2ccccc2C(F)(F)F)nc2ccsc2c1=O 1.98%, Cc1ccc(CN(C(=O)c2ccccc2)c2ccccn2)o1 0.862%, Cn1c(=O)c2c(SCC(=O)Nc3ccccc3C(F)(F)F)nc(C3CCCC3)nc2n(C)c1=O -3.52%, COc1ccc(-c2cc(C)no2)cc1S(=O)(=O)N1CCc2ccccc21 -6.98%, CCc1ccc(NC(=O)CN(c2ccc(C)cc2)S(=O)(=O)c2cccs2)cc1 4.35%, CCc1ccc(NC(=O)C(=O)NCC(c2cccnc2)N2CCN(c3ccc(F)cc3)CC2)cc1 (centres undefined) 8.7%, CC(=O)N1CCc2nc3sc(C(=O)c4ccc(F)cc4)c(N)c3c(C(F)(F)F)c2C1 -46.1%, Cc1ccc(NC(=O)c2nc(S(C)(=O)=O)ncc2N(Cc2ccco2)Cc2cccs2)c(C)c1 -20%, Cc1ccc(OCC(=O)Nc2nnc(S(=O)(=O)N3c4ccccc4CC3C)s2)cc1 (centres undefined) 9.45%, Cc1ccc(C(=O)Nc2ccc(S(=O)(=O)N3CCC(c4nc5ccccc5s4)CC3)cc2)cc1 -12.6%, Cc1ccc(NC(=O)CSc2nc(=O)n(CCN3CCOCC3)c3c2CCC3)c(C)c1 -3.53%, C[C@@H]1COC(Nc2ccc3ncnc(Nc4ccc(OCc5nccs5)c(Cl)c4)c3c2)=N1 -22.2%, Cc1ccc(OCCCCn2nnc3sc4c(c3c2=O)CCCC4)cc1 7.17%, CCOc1ccccc1Nc1sc(C(=O)c2ccccc2)c(N)c1C(=O)Nc1ccccc1 -6.89%, CC(=O)c1cc(-c2ccccc2)n(CCC(=O)NCc2ccc(C)cc2)c1C 31.3%, CCc1ccc(NC(=O)Cn2c(=O)n(CCCCC(=O)NCc3ccc4c(c3)OCO4)c(=O)c3ccccc32)cc1 -20.5%, COc1ccc(-c2noc(N(c3nc(-c4ccc(OC)c(OC)c4)no3)c3ccccc3OC)n2)cc1OC 6.46%, O=S(=O)(NCc1nc2cccnc2n1Cc1ccccc1)c1ccc2c(c1)CCCC2 -1.14%, N#C/C(=C/c1ccc(Cl)cc1)c1nc(-c2ccc(Br)cc2)cs1 -23.6%, CCCCc1nn2c(=O)cc(COC(=O)c3cccc(NC(=O)CCc4ccccc4)c3)nc2s1 -12.1%, CCc1ccc(-n2c(=O)c3c(C)c(C)sc3n(CC(=O)NCc3ccc(C)cc3)c2=O)cc1 -0.955%, COc1cc(/C=C(\C#N)c2nc3ccccc3[nH]2)cc(Cl)c1OCc1ccccc1Cl 16.3%, Cc1ccc(CSc2oc(-c3ccco3)nc2S(=O)(=O)c2ccc(C)cc2)cc1 2.38%, COc1cc2nc(SCC(=O)Nc3c(C)cc(C)cc3C)n3nc(CCn4c(C)nc5ccccc54)nc3c2cc1OC -4.92%, Cc1ccc(NS(=O)(=O)c2ccc3[nH]c(=O)oc3c2)c(C)c1 6.6%, CCCn1c2ccccc2c2cnn(CC(=O)N(C)c3ccccc3CC)c(=O)c21 -4.6%

outcome, inactive:
CCOc1ccc(-c2ncnn2-c2sc3c(c2C#N)CCCCC3)cc1, CC(C)c1ccc(N2C(=O)CS(=O)(=O)C23C(=O)N(Cc2cccc(F)c2)c2ccccc23)cc1 (centres undefined), Cc1oc(-c2ccc(C(=O)NCc3ccc(Cl)cc3)cc2)nc1CS(=O)(=O)c1ccccc1, CSc1ncc(C(=O)Nc2c(C)cccc2C)c(-c2ccccc2)n1, COc1ccccc1CCNC(=O)c1ccc(-c2nc(CSc3ccc(C)cc3)c(C)o2)cc1, Cc1cc(C)c(OCC(=O)N(Cc2ccco2)Cc2ccco2)c(C)c1, Cc1ccc(Nc2nnc(-c3ccc(C)c(S(=O)(=O)N4CCN(C)CC4)c3)c3ccccc23)cc1, CC(=O)c1cccc(NC(=O)c2nc(-c3ccccc3)n(-c3cccc(Cl)c3)n2)c1, CCOc1ccccc1NC(=O)c1ccc2c(Cl)c3c(nc2c1)CCC3, CCOc1ccccc1CNc1ccc2cc(S(=O)(=O)N3CCC(C)CC3)ccc2n1, COc1ccc(-c2nn3c(=O)cc(CN4CCN(C(=O)c5ccc(OC)c(OC)c5)CC4)nc3s2)cc1, CCCN(CCC)C(=O)Cn1c(=O)n(-c2ccccc2)c(=O)c2c3c(sc21)CCCC3, CCOC(=O)c1ccc(NC(=O)/C(C#N)=C/c2ccc(OC)cc2)cc1
